The record followed here is ChEMBL document CHEMBL4888484, “Replenishing the malaria drug discovery pipeline: Screening and hit evaluation of the MMV Hit Generation Library 1 (HGL1) against asexual blood stage Plasmodium falciparum ,using a nano luciferase reporter read-out” (2022).

Out of some 150,000 compounds screened, about 540 (0.36%) showed an effect of 50% or more. Some of the results follow.

This assay deals with Plasmodium falciparum. The assay can be described thus: Primary screen in NF54 nanoGlo assay, in single point, at 2uM, 72h; a lower Z score goes with more inhibition. In kind it is functional, Erythrocyte. As to conditions: timepoint 72 hour.
As usually defined, the % Inhibition is the relative decrease from the control value, in per cent. In the case of `COc1ccc(NC(=O)c2cn3c(n2)CCCC3)cc1OC`, the “% Inhibition” value was found to be 3% and the Z score was -0.43.
For `COc1cc2c(cc1CNCc1n[nH]c(=O)[nH]1)OCO2` the same measures were 6% and -0.93.
Turning to `COc1ccc(-c2c(C(=O)Nc3cccc(C)c3C)nn3c(C)cc(=O)[nH]c23)cc1`, the “% Inhibition” value is -16% and the Z score amounted to 1.9.
For `Cc1cccc(C(=O)N2CC[C@H]3C(=O)NCCCCCCN(Cc4ccncc4)[C@@H]3C2)c1` the same measures were -13% and 1.71.
In the same order, the values of `Cc1cc(C)nc(O[C@H]2CC[C@H](NC(=O)c3ccc[nH]c3=O)CC2)n1` are -10% and 1.1.
With `Cc1cc(NC(=O)N2CC[C@H](CN3CCCCC3)C2)ccc1F`, the “% Inhibition” value is given as -5% and the Z score was 0.63.
In the same order, the values of `CC(C(=O)NCC(c1cccnc1)N(C)C)c1ccc(Cl)s1` (centres undefined) are -2% and 0.28.
In the same order, the values of `FC(F)(F)c1ccc(CC2CNC2)cc1` are 5% and -0.72.
For `O=C(NC[C@H]1OCCc2ccccc21)c1ccco1` the same measures were -2% and 0.23.
With `Cc1nnc([C@@H]2CCCN2C(=O)CCc2ccccc2)[nH]1`, the “% Inhibition” value is -11% and the Z score turned out to be 1.33.
In the same order, the values of `COC(=O)C(C)(C)CNC(=O)NC1CCOC(C(C)C)C1` (centres undefined) are -15% and 2.44.
Take `CC(C)(C)Cc1cc(NC(=O)C2CC3CCC2O3)[nH]n1` (centres undefined): the “% Inhibition” value turned out to be 33% and the Z score is -3.72.
In the same order, the values of `CCc1ccc(-n2c(CN3CCN(C(=O)NC(C)C)CC3)nc3cccnc32)cc1` are -2% and 0.35.
For `COc1cccc(C(=O)N2C(C(=O)NC(C)c3ccccc3)COC23CCN(C(=O)c2ccccc2C)CC3)c1` (centres undefined) the same measures were -2% and 0.29.
On to `O=C(c1cn[nH]c1)N1CCC(n2cc(-c3cc(F)cc(F)c3)nn2)CC1`, for which the “% Inhibition” value is listed as -1% and the Z score was 0.11.
For `Cc1nc([C@@H]2CCCN2C(=O)C2CCCCC2)n(CCc2cnc[nH]2)n1` the same measures were -12% and 2.28.
For `O=C1CC[C@H](CCNS(=O)(=O)c2ccccc2)CCN1CC1CC1` the same measures were 29% and -3.85.
For `O=C(c1csc(S(=O)(=O)NCc2ccccc2)c1)N1CCCC1` the same measures were -8% and 0.99.
In the case of `C[C@@H](CCO)CNC(=O)CC1(C)CCCCC1`, the “% Inhibition” value is -12% and the Z score is recorded as 1.61.
In the same order, the values of `Cn1cncc1CNc1ccc(-c2ccccc2)cn1` are -3% and 0.28.
For `CN(Cc1ccncc1)Cc1cn(C)nc1C(C)(C)C` the same measures were -2% and 0.22.
For `COc1c(C)cc(C(=O)[C@H]2CCCN(Cc3ccc4cc(NC(C)=O)ccc4n3)C2)cc1C` the same measures were 7% and -1.04.
`CCC(C)(C)CNC(=O)Nc1ncn(C(C)(C)C)n1`: the “% Inhibition” value is given as -9% and the Z score was determined as 1.01.
With `NC(=O)Cn1cc(-c2ccccc2-c2ccccc2)cn1`, the “% Inhibition” value turned out to be 8% and the Z score is recorded as -1.46.
For `CCCc1nc(NC(=O)N2CC[S@+]([O-])C(C)(C)C2)sc1CC` the same measures were -2% and 0.18.
For `Cn1cnc2c(c1=O)CCN(Cc1nnc3n1CCCCC3)C2` the same measures were -3% and 0.63.
As for `CCCCC12CN(S(=O)(=O)c3ccccc3)CC(C)(CN(S(=O)(=O)c3ccccc3)C1)C2=O`, the “% Inhibition” value is recorded as 39% and the Z score was -4.99.
For `COc1ccccc1N1CCN(c2ncccc2CNCc2cnc(C)n2C)CC1` the same measures were 1% and -0.12.
In the same order, the values of `CCS(=O)(=O)N(CC(=O)N(Cc1ccc(C)cc1)C1CCN(C(=O)c2ccc(C)cc2)CC1)CC(C)C` are 2% and -0.37.
In the same order, the values of `Cc1c(CCC(=O)NCc2ccn3ccnc3c2)cnn1C` are -21% and 3.5.
As to `COc1cnc(NC(=O)NCCc2ccnn2C)cn1`, the “% Inhibition” value came out at 1% and the Z score is reported as -0.13.
Turning to `Cc1ccc(-c2noc([C@@H]3CN(C)C(=O)N3)n2)cc1`, the “% Inhibition” value is -4% and the Z score was 0.7.
For `O=C1CC[C@@H]2CN(c3nccc4ccccc34)CC[C@@H]2N1CCCCO` the same measures were 6% and -0.85.
For `Cc1ccc(N(C)C(C)C)c(C(=O)N2CCS(=O)(=O)C[C@@H]2C)c1` the same measures were -2% and 0.15.
In the same order, the values of `CC[C@@H](C(=O)NCCc1ccccn1)n1c(Cc2ccccc2F)nc2cc(Cl)c(Cl)cc21` are 0% and 0.01.
`COc1ccc(CN(C(=O)NCc2ccco2)C2CCCC2)c(OC)c1`: the “% Inhibition” value amounted to 13% and the Z score is -2.51.
In the same order, the values of `COc1ccc(CCNC(=O)c2c(O)c3cccc4c3n(c2=O)CC4)cc1` are -12% and 1.08.
In the same order, the values of `O=S(=O)(c1cccnc1)N1CCN(Cc2noc(C3CC3)n2)CC1` are -5% and 0.59.
Regarding `CC(=O)N(c1nc(C2NC(=O)[C@@H]3[C@@H](C)OCCN23)cs1)C1CC1` (some centres undefined), the “% Inhibition” value came to 20% and the Z score is listed as -2.54.
For `CCC(C)(CC)NC(=O)[C@H]1C[C@H](OC)CN1S(C)(=O)=O` the same measures were -2% and 0.3.
In the same order, the values of `C[C@H](Nc1nnc(-c2cccc(S(C)(=O)=O)c2)[nH]1)C1CC1` are -7% and 0.8.
For `Cc1csc([C@@H](C#N)C(=O)c2ccc3nc(C)ccc3c2)n1` the same measures were -13% and 1.19.
